Experimental data reported in PubChem BioAssay AID1508642 (National Center for Advancing Translational Sciences (NCATS), 2021).
In all, about 43,000 compounds went through this assay and about 200 (0.47%) were called active. Another 12% or so got no clear call; they are omitted. Calls follow the shape of the dose curve; as a rule, active = well fitted cell-killing curve with a large enough effect; inconclusive = small, poorly fitted or top-dose-only effect, or effect the other way; inactive = flat fitted curve, though single readings scatter. Some of the results follow.
% is scaled to controls: 0 for no effect and ±100 for the full control effect.

Test: Cell viability qHTS assay in S16 Pmp22-F2sN cells; also: nearly all actives have a fitted effect of over 65% in size
Settings: S16 Pmp22-F2sN Schwann cells (luciferase reporters placed in the Pmp22 gene) viability, CellTiter-Glo, 24 h; series mostly up to 57.5 µM; activity change, negative = cytotoxicity: at the top concentration
Procedure, shortened: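 CellTiter-Glo counter-screen, qHTS, 1536-well. Cells: S16(c9) Pmp22-F2sN, 500-1,000/well in DMEM + 10% FBS. Cpd 23 nL pin transfer, 24 h, 37C/5% CO2. Read: luminescence, CCD imager.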
In the case of O=C(Cn1c(=O)n(-c2ccccc2)c(=O)c2c3c(sc21)CCCC3)Nc1ccc(F)cc1, the “activity change, negative = cytotoxicity” value is reported as inactive: 14.4%. With COc1ccccc1N1CCN(C(=O)c2cc3c(=O)n(Cc4cccnc4)ccc3nc2C)CC1 the “activity change, negative = cytotoxicity” value was inactive: -1.86%. In the case of Cc1ccccc1OCC(=O)Nc1nnc(S(=O)(=O)N(C)c2ccccc2)s1, the “activity change, negative = cytotoxicity” value is reported as inactive: -7.26%. For CCC1Oc2ccccc2N(CC(=O)NCc2ccc(C)cc2)C1=O (stereo unspecified), the “activity change, negative = cytotoxicity” value was inactive: 5.15%. With CC1=C(C(=O)OC2CCCC2)C(c2cccc(Cl)c2Cl)CC(=O)N1 (stereo unspecified) the “activity change, negative = cytotoxicity” value was inactive: 22.2%. With CCOc1ccc(-n2ccnc2SCC(=O)Nc2ccc(OC)cc2OC)cc1 the “activity change, negative = cytotoxicity” value was inactive: -18.7%. With CC(=O)c1ccc(NC(=O)COc2ccccc2-c2nc(C)no2)cc1 the “activity change, negative = cytotoxicity” value was inactive: 8.43%. With CCn1c2c(c(=O)n3ncc(C(=O)Nc4ccc(F)c(Cl)c4)c13)CN(Cc1ccc(OC)cc1)CC2 the “activity change, negative = cytotoxicity” value was inactive: 1.66%. In the case of CC(C)CC(=O)N(Cc1ccccc1)S(=O)(=O)c1ccc2c(c1)oc(=O)n2C, the “activity change, negative = cytotoxicity” value is reported as inactive: -0.653%. For CCOc1ccc(C(=O)OCc2cc(=O)n3nc(C(C)C)sc3n2)cc1, the “activity change, negative = cytotoxicity” value was inactive: 13%. For CCN1CCN(c2ncc3c(n2)CCN(Cc2ccc(C)s2)C3)CC1, the “activity change, negative = cytotoxicity” value was inactive: 12%. For Cc1cccc(CCNC(=O)c2nc(-c3ccc(Cl)cc3)n3c2CCCCC3)c1, the “activity change, negative = cytotoxicity” value was inactive: -17%. In the case of COc1ccc(Br)cc1CNC(=O)c1cc2c(=O)n(C)c3ccccc3c2s1, the “activity change, negative = cytotoxicity” value is reported as inactive: 0.0947%. With N#Cc1ccc(NC(=O)COCc2cc(-c3ccc(F)cc3)on2)cc1 the “activity change, negative = cytotoxicity” value was inactive: 8.29%. In the case of COC(=O)c1cc2oc(C)cc2n1Cc1ccc(Cl)cc1, the “activity change, negative = cytotoxicity” value is reported as inactive: 4.09%. For COc1cccc(NC(=O)CN2C(=O)C3(SCC(=O)N3c3cc(C)cc(C)c3)c3ccccc32)c1 (stereo unspecified), the “activity change, negative = cytotoxicity” value was inactive: -1.39%. For Cc1ccc(CN2C(=O)N(c3ccc(C)c(Cl)c3)S(=O)(=O)c3ccccc32)cc1, the “activity change, negative = cytotoxicity” value was inactive: -4.8%. In the case of Cc1ccc(NC(=O)C2CCN(S(=O)(=O)c3c(C)noc3C)CC2)cc1C, the “activity change, negative = cytotoxicity” value is reported as inactive: 18.5%. With CCN(CC)C(=O)C1CCN(C(=O)c2cnn(-c3ccccc3)c2-n2cccc2)CC1 the “activity change, negative = cytotoxicity” value was inactive: -0.339%. With O=C(CSc1nccn1C1CCCC1)Nc1ccccc1 the “activity change, negative = cytotoxicity” value was inactive: -3.03%. With CCOC(=O)CSc1nc2ccccc2n2c(C)nnc12 the “activity change, negative = cytotoxicity” value was inactive: 3.22%. In the case of CCOc1ccc(CNC(=O)c2cnc(SC)nc2C)cc1, the “activity change, negative = cytotoxicity” value is reported as inactive: -18.2%. For COC(=O)c1c(-c2cccs2)csc1NC(=O)COc1ccc(C(C)C)cc1, the “activity change, negative = cytotoxicity” value was inactive: -0.508%. With CCOC(=O)C1CCN(C(=O)c2nn(-c3ccc(C)cc3)c(=O)n(C)c2=O)CC1 the “activity change, negative = cytotoxicity” value was inactive: -2.36%. For O=C(Nc1ccc(Cl)cc1C(F)(F)F)c1cc(S(=O)(=O)NCc2ccccc2)ccc1F, the “activity change, negative = cytotoxicity” value was inactive: -8.75%. With CCc1ccc(CNC(=O)c2ccc(CS(=O)(=O)Cc3ccccc3C)o2)cc1 the “activity change, negative = cytotoxicity” value was inactive: -3.02%. With Cc1cn2c(=O)c(S(=O)(=O)NCCc3ccc(Cl)cc3)c(C)nc2s1 the “activity change, negative = cytotoxicity” value was inactive: -0.26%. In the case of CC(=O)N1CCc2c(sc3c2c(=O)n(-c2ccccc2)c(=O)n3CC(=O)c2ccc(F)cc2)C1, the “activity change, negative = cytotoxicity” value is reported as inactive: -5.18%. With COc1cc(C(=O)Nc2nnc(CC(C)(C)C)s2)cc(OC)c1OC the “activity change, negative = cytotoxicity” value was inactive: -0.217%. In the case of CCc1ccc(NC(=O)C2CCCN2S(=O)(=O)c2cccc3nsnc23)cc1 (stereo unspecified), the “activity change, negative = cytotoxicity” value is reported as inactive: -18.9%. With COC(=O)c1ccc(OCC2c3cc(OC)c(OC)cc3CCN2C(=O)Cc2ccc(OC)c(OC)c2)cc1 (stereo unspecified) the “activity change, negative = cytotoxicity” value was inactive: -1.24%. With CC(C)c1nn2c(=O)cc(COC(=O)c3ccc4c(c3)OCO4)nc2s1 the “activity change, negative = cytotoxicity” value was inactive: 22.5%. With CCOC(=O)C1CCC(CN(Cc2ccc(OC)cc2)S(=O)(=O)c2ccc(F)c(C(=O)Nc3cc(Cl)ccc3OC)c2)CC1 (stereo unspecified) the “activity change, negative = cytotoxicity” value was inactive: -5.51%. With Cn1cc(-c2cc3n(n2)CCC(=O)N3CCCC(=O)NCc2ccccc2)c2ccccc21 the “activity change, negative = cytotoxicity” value was inactive: -15.7%. For CCN(CC)CCNC(=O)Cn1cnc2sc(C)c(S(=O)(=O)N3CCC(C)CC3)c2c1=O, the “activity change, negative = cytotoxicity” value was inactive: 6.82%. With CCc1ccc2occ(CC(=O)NCc3ccccc3)c2c1 the “activity change, negative = cytotoxicity” value was inactive: -21.4%. In the case of CCOc1ccccc1C(=O)Nc1cc2c(cc1C)n(C)c(=O)c(=O)n2C, the “activity change, negative = cytotoxicity” value is reported as inactive: 6.77%. In the case of COc1ccc(-c2nc3sc(CCNC(=O)c4ccc(C(C)(C)C)cc4)c(C)n3n2)cc1, the “activity change, negative = cytotoxicity” value is reported as inactive: 12.8%. With CCCCNc1nc2c(-c3cccc(Br)c3)nnn2c2ccccc12 the “activity change, negative = cytotoxicity” value was inactive: 7.55%. In the case of Cc1cn2c(=O)cc(COC(=O)c3ccc(NC(=O)c4ccc(C(C)(C)C)cc4)cc3)nc2s1, the “activity change, negative = cytotoxicity” value is reported as inactive: -3.33%. In the case of COc1ccc(C2=Nc3ccccc3N(CC(=O)Nc3cccc(C(C)=O)c3)C(=O)C2)cc1, the “activity change, negative = cytotoxicity” value is reported as inactive: -18.4%. In the case of CCOC(=O)c1ccc(NC(=O)C(CC)Sc2nncn3c2cc2oc(C)cc23)cc1 (stereo unspecified), the “activity change, negative = cytotoxicity” value is reported as inactive: 0.464%. In the case of O=C1Nc2c(c(=O)[nH]c(=O)n2-c2ccc(F)cc2)C1(NS(=O)(=O)c1ccc(Cl)cc1)C(F)(F)F (stereo unspecified), the “activity change, negative = cytotoxicity” value is reported as inactive: -0.211%. In the case of COc1cccc2c1cc1c(=O)n(CC(=O)NCCCN3CCN(C)CC3)nc(C)n12, the “activity change, negative = cytotoxicity” value is reported as inactive: 18.3%. For CCC1=C(c2ccc(C)cc2)S(=O)(=O)N=C1N1CCC(C(=O)NCCc2cccc(OC)c2)CC1, the “activity change, negative = cytotoxicity” value was inactive: 0.138%. For COc1ccc(OCCCn2c(C)nc3cc(C)c(C)cc32)cc1, the “activity change, negative = cytotoxicity” value was inactive: -7.88%. With Cc1ccc(NC(=O)N2CCC(CN3CCCCC3)CC2)c(Cl)c1 the “activity change, negative = cytotoxicity” value was inactive: 6.39%. In the case of CCn1cc(/C=C(\NC(=O)c2ccc(OC)c(OC)c2)C(=O)NCCCn2ccnc2)c2ccccc21, the “activity change, negative = cytotoxicity” value is reported as inactive: 7.45%. In the case of CCOC(=O)c1cc(-c2ccc(OC)cc2)n(CCC(=O)NCCc2ccc(OCC)c(OCC)c2)c1C, the “activity change, negative = cytotoxicity” value is reported as inactive: 0.535%. For Cc1nc2sccn2c(=O)c1S(=O)(=O)Nc1cccc(Cl)c1C, the “activity change, negative = cytotoxicity” value was inactive: -20.1%. With CN(C)c1ccc(CNC(=O)C2CCN(C(=O)c3ccc(-n4ccc5ccccc54)s3)CC2)cc1 the “activity change, negative = cytotoxicity” value was inactive: -5.97%. With COc1cc([N+](=O)[O-])ccc1NC(=O)N1CCC2(CC1)Nc1cc(F)ccc1-n1cccc12 the “activity change, negative = cytotoxicity” value was inactive: -16.3%. With CCOC(=O)c1c(-c2ccc(OC)cc2)oc2ccc(OCc3ccc(F)cc3F)cc12 the “activity change, negative = cytotoxicity” value was inactive: -4.03%. With CC(C)(C)OC(=O)N1CCC(c2c(C(=O)N3CCN(c4ncccn4)CC3)cnn2-c2ccc(F)cc2)CC1 the “activity change, negative = cytotoxicity” value was inactive: -6.2%. For COc1ccc(NC(=O)c2ccco2)cc1NC(=O)c1ccc(OC(C)C)cc1, the “activity change, negative = cytotoxicity” value was inactive: -3.19%. For Cc1cc(C)cc(OC(C)C(=O)Nc2nc3c(s2)CCCC3)c1 (stereo unspecified), the “activity change, negative = cytotoxicity” value was inactive: -15.5%. For CCOc1ccc(Nc2ncnc3onc(-c4ccc(Cl)cc4)c23)cc1, the “activity change, negative = cytotoxicity” value was inactive: -1.24%. With COc1ccc(CCNC(=O)Cn2nc(-c3ccc(Cl)cc3)ccc2=O)cc1OC the “activity change, negative = cytotoxicity” value was inactive: -8.41%. In the case of COc1cn(CC(=O)Nc2cccc(C)c2)c(CN2CCCCC2)cc1=O, the “activity change, negative = cytotoxicity” value is reported as inactive: 0.312%. For COc1ccc(Oc2ncnc3c2oc2ccccc23)cc1, the “activity change, negative = cytotoxicity” value was inactive: -2.17%. In the case of CCOC(=O)c1ccc(NC(=O)C2CCCN(c3cnccn3)C2)cc1 (stereo unspecified), the “activity change, negative = cytotoxicity” value is reported as inactive: 7.24%.
